For 22 molecules, binding signal results are on record in publication PMC12136788.

Sequences and labels used below:
B1: chr8:104447970:104447971:+_ENSG00000164934_ENST00000297579|hu_hu|hu_hu_hu_mus_False|1_48 (ssRNA)
RNA: GGGAGUUCUACAGUCCGACGAUCAUACACUUCCCUGCUUCGGCUCUUGUCCACAGGAAAGAUUCUAAUAGACUUAUCAAAGCUGGCAGACACAAACUCCUUCCCAGUGGGAGAGUAGUCCACAUCAAGUACUGCAGAUACAUGCAACAGAGGAUUGAGCAUCA
B2: 120933971_120934290_173_CDS_ENSG00000088986_ENST00000242577|human|control|control (ssRNA)
RNA: GGGAGUUCUACAGUCCGACGAUCCACCGAGUCCUGUUGCAUCUCUUCCGACAUGUCCGCAUUUUUGAUCACGGCCUUUCGGUCGCACAUGGUUACCGUGGAGAAGGGGGCUGGCCGACUGCAACGGUCUCCUGGGGGAGGUGCCAACAGAGGAUUGAGCAUCA
B3: chr5:111714535:111714536:+_ENSMUSG00000033209_ENSMUST00000156290|mus_mus|FALSE|FALSE (ssRNA)
RNA: GGGAGUUCUACAGUCCGACGAUCGUCUGAGCUUGCCAGUUUCCCCACUUUCUGGAAGGGUGAGUUUGGGCUGGGGAUCAGGGUCAUCUUCACGGGGGAGUUGGGAGUGCUGACGCUUCCCUUAGAGCUGACUGAAAGCCUCACCAACAGAGGAUUGAGCAUCA
B4: chr4:117558906:117558907:-_ENSMUSG00000033379_ENSMUST00000036380|mus_mus|FALSE|FALSE (ssRNA)
RNA: GGGAGUUCUACAGUCCGACGAUCGGAUGAGCCGGUUAUAUAGAUUCCCCAGGCUGCUCCAACCACAGACAGAGAAAUUGCUAGGCCAAUGCCCAGAUUCGACCACAUGAAGGGGGAAGUUUCCGUCAGGAACCAUGCCACAUCCAACAGAGGAUUGAGCAUCA
B5: chr5:135508174:135508175:+_ENSG00000113658_ENST00000545279|hu_hu|motif|central (ssRNA)
RNA: GGGAGUUCUACAGUCCGACGAUCACUAGUAGAAGAUGCAUGAAAAGCUUCUCCAACACGAUUGUUUAAUUCAUAGUAGACGGUUGAACACCAAUGUUUAGGCUCUUCAUAGGCAACAGGCUGAACAUCCCUGCUGGAUAUACUCAACAGAGGAUUGAGCAUCA
B6: chr10:88199856:88199857:+_ENSMUSG00000060904_ENSMUST00000116234|mus_mus|FALSE|FALSE (ssRNA)
RNA: GGGAGUUCUACAGUCCGACGAUCUGCAUCUGUGUUUGAAUAAUAACAUCUCCAGUAUGGCCUGAUACUUGUCUGUCCUCCUAAGUCCCAAACUUGGAAUUUGAGAUUUUUGUAUGUCACCGUCUCCACAUUAAAUCCAAUAGUCAACAGAGGAUUGAGCAUCA
B7: 81087466_81087586_1854_3pUTR_ENSMUSG00000025789_ENSMUST00000026896|mouse|control|control (ssRNA)
RNA: GGGAGUUCUACAGUCCGACGAUCGUCCUUUGGGCAGCUGCACUCUCAAGUUCAUGAACAAAGCCCUCAGCUCCGUUGUGAUCAGUGCUGCUUGCUCUCCUUGUGCCUCUUUGCCCAAUGGAAUUUUCCAAGUCUCUCCUCCAUCAACAGAGGAUUGAGCAUCA
B8: chr8:42711381:42711382:-_ENSG00000120925_ENST00000527424|hu_hu|motif|central (ssRNA)
RNA: GGGAGUUCUACAGUCCGACGAUCCACUUCUCGAUACAUAAUAGAGAUGUAGAUAAGCAAUAAAAAGAUGACAAAGAAAUCAUCGGGAAAGCCUAGAAUUCCAAACAAGGCUUCAGGUACAAAAUCUAGAGGUGAUAUAAGAUACAACAGAGGAUUGAGCAUCA
B9: chr16:16926518:16926519:+_ENSMUSG00000026181_ENSMUST00000027373|mus_mus|motif|central (ssRNA)
RNA: GGGAGUUCUACAGUCCGACGAUCGAGGGGGACUUGAGCUCACAGCCACCCUUCUCCCUGUUCCUUCCCUGAGCCUCGGCGGAGCCACCCAUUAUCCUGGCUAGGGGAUUCUUUUGGGAAGAGACUCUGAGGAGGAGGUGGCCACAACAGAGGAUUGAGCAUCA
B10: 67690123_67705373_131_CDS_ENSMUSG00000024533_ENSMUST00000115050|mouse|control|control (ssRNA)
RNA: GGGAGUUCUACAGUCCGACGAUCAAUCUUCUUAAGGUUCUCCUUUGCACUCUUAAUUUUGGUCAGAAAUGUAUGCAGUUCCAUGGUUUCUGCGAACAGGGCCCGACAUACUGCCUGAUAAUGAUUGGGUGCCUCCGACUCAGUCAACAGAGGAUUGAGCAUCA
B11: chr2:172803269:172803270:+_ENSG00000128708_ENST00000264108|hu_mus|FALSE|FALSE (ssRNA)
RNA: GGGAGUUCUACAGUCCGACGAUCGAAAGCAGUUUCAUCAUCCCCAAAGAGCUGAUGGGUAUAUUCAGGAAAGAAAGUUCUAAUGUCAUUCUCAAGAUCUUCAGGAAAACGAACUAGUUUCAGCUCGAUUGCUGUGUUGGUGUUCAACAGAGGAUUGAGCAUCA
B12: chr10:61154807:61154808:+_ENSMUSG00000020088_ENSMUST00000020285|mus_hu|motif|central (ssRNA)
RNA: GGGAGUUCUACAGUCCGACGAUCCAACUCUUUUAUGAGGUCAAAGUCACUUUUGAUAACUGAAAACGAAAAAGGAAGGUGCGGUAGAGAGAAAUUAAAUUUCACAAAAGUAUAAAAGCAAAGACUGGCUAAAAUCUGUAACUUCAACAGAGGAUUGAGCAUCA
B13: chr12:88510985:88510986:-_ENSMUSG00000034111_ENSMUST00000037418|mus_hu|FALSE|FALSE (ssRNA)
RNA: GGGAGUUCUACAGUCCGACGAUCACUGUCUCUUAGAAUUUGCUGGGCUGUGGGUUCUCAGUAAUUACCUGUGCUUCAGUAAGUAGUAUCUUGCCCCUAAAGUUCAAUUAUUUCAGAAAUGUAACAUGAAAAUAGUGAAUUAGACAACAGAGGAUUGAGCAUCA
B14: chr2:15737528:15737529:+_ENSG00000079785_ENST00000233084|hu_hu|motif|central (ssRNA)
RNA: GGGAGUUCUACAGUCCGACGAUCUUUAAUUGUUGUUUUUCCUUUUUUGCCUUCCUGUUGGUCUUUCAGAGUUUCAUAAACGGUCUGGAUAACUGGAAUACUAAAAGCACCAGUUUUGCCACUUCCUGUUUCUGCAGCCAUAAGCAACAGAGGAUUGAGCAUCA
B15: chr11:70266916:70266917:+_ENSMUSG00000018923_ENSMUST00000019067|mus_mus|FALSE|FALSE (ssRNA)
RNA: GGGAGUUCUACAGUCCGACGAUCAGGAAGUGGGUUGGGAGUUGACCUCUGACCUCUGUCUGAUCUUGCAUAGUGGAAAACAGGGCCGUCUUGCUGGAAGAGUCAGAAGAGAUGUGUGUACACUGGGGCUUUGGAUUCUUCAGUCAACAGAGGAUUGAGCAUCA
B16: 60642699_60642819_4119_CDS_ENSG00000081913_ENST00000262719|human|control|control (ssRNA)
RNA: GGGAGUUCUACAGUCCGACGAUCCUCUUCUUCACAGCUCAUGAUGUAAGAUCUGGACAGAGGCAGCGGCUUUCCAUUUCGACAGAGAACUGUUUGGCACUUGCCCACAUUAGCAGAGGUCAAGGUGAAGGAUCCUCCUGGAUCCAACAGAGGAUUGAGCAUCA
B17: 89908954_89956294_234_3pUTR_ENSMUSG00000002489_ENSMUST00000163370|mouse|control|control (ssRNA)
RNA: GGGAGUUCUACAGUCCGACGAUCAGAAACCCCAGGCCAAACAGAAGAGCCUUGGUCAAGAUCUCCAAAGGUGCCAUCUGAAGGCGCUGCUCAAGUCCUGAGUGAGGGACUAGAAUUGUCUCCGGGACUGUCCCCUCCCUUCCUCAACAGAGGAUUGAGCAUCA
B18: 30261907_30262514_1480_CDS_ENSMUSG00000026853_ENSMUST00000028207|mouse|control|control (ssRNA)
RNA: GGGAGUUCUACAGUCCGACGAUCCACAAGUGCAACUAUGGGGGGCCCUUCUGCAGCUGCAUGCUCAUACACCAUCCCACAGGAGCCGUCUUCUGCCACGAUGAACUGCAGUGUCUUGUCAAACCAGCGGUUGCCACUGUUGAACAACAGAGGAUUGAGCAUCA
B19: chr14:78183846:78183847:+_ENSG00000119705_ENST00000557342|hu_hu|hu_hu_hu_mus_False|48_98 (ssRNA)
RNA: GGGAGUUCUACAGUCCGACGAUCUCUCAGAAAUCUUUCUUUCUUUUAUGUUUGAGCUCCGUGCAAAGCCUUUGCUCUUUGAGCUUGAACCUGGACCUAUGGGAGGGAAAGCACUGUCAGAAAAGGUAAUUUUUUUUUUAAAGACAACAGAGGAUUGAGCAUCA
B20: chr20:20006332:20006333:+_ENSG00000173418_ENST00000334982|hu_hu|FALSE|FALSE (ssRNA)
RNA: GGGAGUUCUACAGUCCGACGAUCAGGUGCCUCUGCAACAAUGAAAUACUCUGGCCAGUGGGCGAGGUAUUGUAGGUAGAAAGGAAUCCCAUAAGUUUCUGUAAGUGGAUCCAAGUUAAUGUUGUUGAAGCGGAACAGGUCGUCCAACAGAGGAUUGAGCAUCA
B21: chr2:48026839:48026840:+_ENSG00000116062_ENST00000540021|hu_hu|hu_hu_hu_mus_False|28_48 (ssRNA)
RNA: GGGAGUUCUACAGUCCGACGAUCAUAGUGAGCCACUAGCGUCCUAAAUCUGGAACAGUGGCGGUCAUCCGAAAACUGGCCGAUGAAAAACUUUCCCAGUGAAGUGUCAACAAAGCAAACACCAUACACACGAGUGUGACCAGACAACAGAGGAUUGAGCAUCA
B22: 119198781_119198901_4864_CDS_ENSMUSG00000018076_ENSMUST00000100816|mouse|control|control (ssRNA)
RNA: GGGAGUUCUACAGUCCGACGAUCGCUGCCCCCCGCACUGGGGUUCUGCCCUCCAACACCACCACCGAAUCCUGAAGAAGAGGUAGUGUUCAUCUGAGUGAUGCCUGGAGCAGAGGCAGCUGAGGAGCCUGGCGGCCCAGAGGACAACAGAGGAUUGAGCAUCA

This is one part of the list.

This test has as its target T1, UNK ZnF1-3 (human, UniProt Q9C0B0 31-174).
T1 sequence: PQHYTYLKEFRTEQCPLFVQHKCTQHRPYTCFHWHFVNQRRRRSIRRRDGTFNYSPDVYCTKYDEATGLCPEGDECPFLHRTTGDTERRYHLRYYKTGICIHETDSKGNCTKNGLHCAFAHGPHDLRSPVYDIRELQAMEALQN
Description: nsRBNS (natural sequence RNA bind-n-seq); RBNS binding buffer (assumed for nsRBNS): 25 mM Tris pH 7.5, 150 mM KCl, 3 mM MgCl2, 0.01% Triton X-100, 500 ug/ml BSA, 20 U/ml SUPERase-In, 4 C; UNK is unkempt and MSI1 is Musashi-1; names of the RNAs are library labels; protein concentration not given here; high values mean tight binding.
For the molecule B1, the binding signal stood at 0.878 enrichment R. On to B2, for which the binding signal worked out at 1.08 enrichment R. Then B3, with 1.78 enrichment R. In the case of B4, the binding signal was determined as 2.48 enrichment R. As to B5, the binding signal came out at 1.85 enrichment R. Molecule B6 yielded a binding signal of 0.806 enrichment R. The molecule B7 gave a binding signal of 0.545 enrichment R.

B8 registered a binding signal of 1.8 enrichment R. As for B9, the binding signal stood at 0.658 enrichment R. B10 came in with a binding signal of 0.556 enrichment R. The result for B11 reads 0.913 enrichment R. Regarding B12, the binding signal was 1.95 enrichment R. The result for B13 reads 0.946 enrichment R; that for B14, 0.664 enrichment R; that for B15, 0.975 enrichment R. Consider B16, for which the binding signal stood at 1.65 enrichment R.

Take B17: the binding signal was found to be 1.24 enrichment R. Then B18, with 0.431 enrichment R; and B19, with 1.1 enrichment R; and B20, with 1.25 enrichment R. The result for B21 reads 1.33 enrichment R. The result for B22 reads 0.879 enrichment R.
